Reference: the supplement of paper PMC7826260
The list shows a part of the results. Viral Rep nickase domains cut single-stranded DNA in vitro at 3 µM enzyme and 37 °C for 1 h; the strands have 90 letters, of which the middle is given. The score is log2 (uncut reads / reads without enzyme); the lower, the more was cut; hits are not called. Because reads are shares of a total, they shift together; where an enzyme cuts many sequences, the uncut ones exceed 0.

Columns and labels:
Assay in all cases: uncleaved DNA left, log2 of reads against the no-enzyme library (log2 ratio); higher = less cleavage (more negative = more Rep cleavage of the k-mer); sequences stand for … in CTCGTCCG…ACCGGAGA
[1] = test system: T1, Rep nickase domain of Muscovy duck circovirus
T1 sequence (residues 1-111 of Rep, tag left off): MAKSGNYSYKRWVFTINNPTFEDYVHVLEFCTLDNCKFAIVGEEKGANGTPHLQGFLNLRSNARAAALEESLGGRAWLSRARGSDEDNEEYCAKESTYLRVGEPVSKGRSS
Experimental: (§1)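 A pool of 90-nt single-stranded DNAs with seven random bases just before the constant AC of the nick site (name = the seven bases) was cut by 3 µM recombinant His6-SUMO-tagged Rep nickase domain (300 nM DNA, 50 mM HEPES pH 8.0, 50 mM NaCl, 1 mM MnCl2, 1 h, 37 °C, three replicates). Uncut DNA was amplified and sequenced.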

[2] = test system: T2, Rep nickase domain of banana bunchy top virus
T2 sequence (residues 1-94 of Rep, tag left off): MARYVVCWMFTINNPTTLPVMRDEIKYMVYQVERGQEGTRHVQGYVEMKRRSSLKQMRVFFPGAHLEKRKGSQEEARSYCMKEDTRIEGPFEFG
Experimental: as §1

[3] = test system: T3, Rep nickase domain of cabbage leaf curl virus
T3 sequence (residues 1-116 of Rep, tag left off): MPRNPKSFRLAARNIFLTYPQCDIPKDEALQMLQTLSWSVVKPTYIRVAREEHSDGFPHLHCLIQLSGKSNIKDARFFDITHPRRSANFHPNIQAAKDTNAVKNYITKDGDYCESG
Experimental: as §1

[4] = test system: T4, Rep nickase domain of chickpea chlorotic dwarf virus
T4 sequence (residues 1-124 of Rep, tag left off): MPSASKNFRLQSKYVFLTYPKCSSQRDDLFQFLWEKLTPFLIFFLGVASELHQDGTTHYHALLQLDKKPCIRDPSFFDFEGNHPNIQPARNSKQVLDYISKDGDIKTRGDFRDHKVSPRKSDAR
Experimental: as §1

[5] = test system: T5, Rep nickase domain of faba bean necrotic yellows virus
T5 sequence (residues 1-98 of Rep, tag left off): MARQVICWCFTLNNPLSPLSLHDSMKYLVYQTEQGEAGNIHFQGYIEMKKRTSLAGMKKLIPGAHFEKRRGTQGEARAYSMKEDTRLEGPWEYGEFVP
Experimental: as §1

[6] = test system: T6, Rep nickase domain of maize striate mosaic virus
T6 sequence (residues 1-117 of Rep, tag left off): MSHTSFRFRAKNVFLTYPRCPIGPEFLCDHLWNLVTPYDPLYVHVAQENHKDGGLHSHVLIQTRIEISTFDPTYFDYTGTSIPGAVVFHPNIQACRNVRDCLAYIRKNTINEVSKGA
Experimental: as §1

[7] = test system: T7, Rep nickase domain of porcine circovirus 2
T7 sequence (residues 2-116 of Rep, tag left off): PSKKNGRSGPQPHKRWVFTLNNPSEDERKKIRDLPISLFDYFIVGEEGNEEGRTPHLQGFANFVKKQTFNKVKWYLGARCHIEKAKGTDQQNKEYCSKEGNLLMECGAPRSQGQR
Experimental: as §1

[8] = test system: T8, Rep nickase domain of tomato golden mosaic virus
T8 sequence (residues 1-124 of Rep, tag left off): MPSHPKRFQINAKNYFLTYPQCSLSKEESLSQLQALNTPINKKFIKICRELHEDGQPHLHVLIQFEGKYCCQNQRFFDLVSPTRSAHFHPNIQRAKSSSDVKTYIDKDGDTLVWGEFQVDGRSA
Experimental: as §1

[9] = test system: T9, Rep nickase domain of tomato yellow leaf curl virus
T9 sequence (residues 1-136 of Rep, tag left off): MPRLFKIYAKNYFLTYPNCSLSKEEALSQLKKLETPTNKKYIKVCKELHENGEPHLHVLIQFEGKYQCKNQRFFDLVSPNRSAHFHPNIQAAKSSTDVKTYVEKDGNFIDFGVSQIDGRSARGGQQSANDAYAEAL
Experimental: as §1

[10] = test system: T10, Rep nickase domain of wheat dwarf virus
T10 sequence (residues 1-137 of Rep, tag left off): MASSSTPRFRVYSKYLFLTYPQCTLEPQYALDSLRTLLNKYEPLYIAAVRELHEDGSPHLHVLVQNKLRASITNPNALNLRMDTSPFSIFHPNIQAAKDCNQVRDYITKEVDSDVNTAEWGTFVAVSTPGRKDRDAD
Experimental: as §1

| Sequence | uncleaved DNA left (log2) [1] | uncleaved DNA left (log2) [2] | uncleaved DNA left (log2) [3] | uncleaved DNA left (log2) [4] | uncleaved DNA left (log2) [5] | uncleaved DNA left (log2) [6] | uncleaved DNA left (log2) [7] | uncleaved DNA left (log2) [8] | uncleaved DNA left (log2) [9] | uncleaved DNA left (log2) [10] |
| --- | --- | --- | --- | --- | --- | --- | --- | --- | --- | --- |
| GGTGAAT | 0.0282 | 0.0827 | 0.745 | 1.82 | -0.0184 | 2.19 | 0.18 | -0.0693 | 0.112 | 0.0845 |
| TGATGCC | -0.0118 | -0.054 | -0.131 | -0.291 | 0.117 | -0.76 | 0.0506 | 0.00704 | 0.0506 | -0.0208 |
| CCTGCGT | -0.0423 | -0.112 | -0.927 | -0.753 | -0.0923 | -1.04 | 0.0539 | -0.288 | -0.141 | -0.337 |
| AAACGGA | 0.0348 | -0.0107 | 0.0612 | 0.418 | 0.00603 | 0.108 | 0.0216 | 0.0816 | -0.0787 | 0.0212 |
| TTACCGG | -0.00738 | 0.154 | 0.554 | 1.35 | -0.0102 | 1.96 | 0.0717 | 0.146 | -0.0071 | 0.18 |
| GACCCAC | -0.0712 | -0.0196 | 0.273 | 0.914 | -0.104 | 0.871 | -0.0673 | -0.0125 | 0.0191 | 0.127 |
| GGAGTGG | 0.163 | -0.0368 | 0.306 | 0.75 | 0.0183 | 0.616 | 0.185 | 0.0243 | 0.0378 | 0.127 |
| TAGCCAT | 0.00146 | -0.00225 | 0.124 | -0.954 | -0.0588 | 0.593 | -2.17 | 0.0901 | 0.136 | 0.0862 |
| CCCTTCC | -0.0633 | -0.0581 | 0.0518 | -0.197 | 0.0142 | -0.487 | -0.0616 | -0.148 | -0.107 | 0.0976 |
| GATTAGG | 0.0732 | 0.0815 | 0.345 | 1.23 | 0.0362 | 1.27 | 0.169 | 0.104 | 0.0291 | 0.0973 |
| CTCAAAT | 0.0593 | 0.152 | 0.145 | -0.485 | 0.00361 | -0.497 | -0.0912 | 0.0516 | -0.175 | -0.000349 |
| TACGAGT | 0.0812 | 0.0206 | 0.0167 | -0.399 | -0.0434 | -0.0153 | -0.134 | -0.0285 | -0.0164 | -0.0873 |
| GGCATCC | 0.019 | 0.0414 | 0.642 | 1.41 | 0.0295 | 1.91 | 0.0325 | -0.137 | -0.0277 | 0.167 |
| GTGCTCA | -0.015 | -0.076 | 0.196 | 0.895 | -0.0811 | 1.63 | 0.0507 | -0.0141 | 0.001 | 0.0749 |
| TCGGGAC | 0.248 | 0.337 | 1.15 | 2.17 | 0.298 | 2.43 | 0.454 | 0.312 | 0.302 | 0.378 |
| GTCCTGG | 0.0856 | -0.0318 | 0.275 | 0.866 | -0.00688 | 1.7 | 0.0325 | 0.133 | 0.0947 | 0.0228 |
| GGGCATT | -0.106 | -0.135 | 0.712 | 1.97 | 0.0099 | 2.23 | 0.0287 | 0.000197 | -0.135 | 0.182 |
| GGTAGAG | 0.0943 | 0.108 | 0.667 | 1.57 | 0.0675 | 1.27 | 0.335 | 0.0529 | 0.267 | 0.141 |
| CGTGTTT | 0.195 | 0.212 | 0.274 | -0.866 | 0.222 | 0.186 | -0.34 | 0.244 | 0.266 | 0.148 |
| ATCCGGT | 0.046 | -0.00351 | 0.22 | 0.492 | 0.0416 | 0.502 | 0.0841 | 0.184 | -0.0226 | 0.0927 |
| GGCCCAT | -0.0375 | 0.0842 | 0.716 | 1.73 | -0.0119 | 2.14 | 0.0984 | 0.013 | -0.0033 | 0.102 |
| GCCTACA | -0.0819 | 0.0476 | -0.134 | -1.27 | 0.0129 | 0.17 | -0.0631 | -0.165 | -0.034 | 0.02 |
| CTCGTGG | 0.0473 | 0.12 | 0.303 | 1.01 | -0.00682 | 0.826 | 0.0917 | 0.06 | -0.0261 | 0.083 |
| TTAACGT | 0.0482 | -0.0693 | -0.142 | -0.466 | 0.0426 | -0.332 | 0.0634 | -0.0162 | -0.0456 | -0.0213 |
| TTTCATC | -0.00583 | -0.0434 | 0.206 | -0.143 | -0.0589 | -0.579 | -0.0747 | -0.146 | 0.0236 | 0.0637 |
| GGCGCAT | 0.00512 | 0.0342 | 0.803 | 1.87 | 0.0687 | 2.29 | 0.0973 | 0.0818 | -0.0728 | 0.221 |
| GCTGCAG | -0.0273 | -0.227 | -0.752 | -0.634 | -0.099 | -1.02 | 0.00385 | -0.15 | -0.138 | -0.131 |
| AGGGTAA | -0.131 | -0.139 | 0.197 | 0.922 | -0.112 | 1.16 | 0.00718 | 0.0266 | -0.0132 | -0.0205 |
| TAACATA | 0.0134 | 0.0928 | -1.48 | -2.25 | 0.0796 | -0.383 | -0.0193 | -0.117 | 0.103 | -0.346 |
| CACACGT | 0.0933 | -0.0772 | -0.171 | -1.56 | 0.0788 | -0.783 | 0.0522 | -0.0301 | -0.137 | -0.113 |
